Test results: publication PMC4336329 (PLoS ONE, 2015)
Screen size: about 310,000 compounds; about 14,000 (4.5%) showed an effect of 50% or more. The effect is printed as a negative number. Some of the results follow.

Target: human ether-à-go-go-related gene (hERG) potassium channel (human, UniProt Q12809)
Experiment: primary screen, population patch clamp on CHO cells stably expressing hERG
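Also: peak tail current of the secondary pulse compared with the same well before compound.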

Sequence of human ether-à-go-go-related gene (hERG) potassium channel (Q12809 whole entry, looked up): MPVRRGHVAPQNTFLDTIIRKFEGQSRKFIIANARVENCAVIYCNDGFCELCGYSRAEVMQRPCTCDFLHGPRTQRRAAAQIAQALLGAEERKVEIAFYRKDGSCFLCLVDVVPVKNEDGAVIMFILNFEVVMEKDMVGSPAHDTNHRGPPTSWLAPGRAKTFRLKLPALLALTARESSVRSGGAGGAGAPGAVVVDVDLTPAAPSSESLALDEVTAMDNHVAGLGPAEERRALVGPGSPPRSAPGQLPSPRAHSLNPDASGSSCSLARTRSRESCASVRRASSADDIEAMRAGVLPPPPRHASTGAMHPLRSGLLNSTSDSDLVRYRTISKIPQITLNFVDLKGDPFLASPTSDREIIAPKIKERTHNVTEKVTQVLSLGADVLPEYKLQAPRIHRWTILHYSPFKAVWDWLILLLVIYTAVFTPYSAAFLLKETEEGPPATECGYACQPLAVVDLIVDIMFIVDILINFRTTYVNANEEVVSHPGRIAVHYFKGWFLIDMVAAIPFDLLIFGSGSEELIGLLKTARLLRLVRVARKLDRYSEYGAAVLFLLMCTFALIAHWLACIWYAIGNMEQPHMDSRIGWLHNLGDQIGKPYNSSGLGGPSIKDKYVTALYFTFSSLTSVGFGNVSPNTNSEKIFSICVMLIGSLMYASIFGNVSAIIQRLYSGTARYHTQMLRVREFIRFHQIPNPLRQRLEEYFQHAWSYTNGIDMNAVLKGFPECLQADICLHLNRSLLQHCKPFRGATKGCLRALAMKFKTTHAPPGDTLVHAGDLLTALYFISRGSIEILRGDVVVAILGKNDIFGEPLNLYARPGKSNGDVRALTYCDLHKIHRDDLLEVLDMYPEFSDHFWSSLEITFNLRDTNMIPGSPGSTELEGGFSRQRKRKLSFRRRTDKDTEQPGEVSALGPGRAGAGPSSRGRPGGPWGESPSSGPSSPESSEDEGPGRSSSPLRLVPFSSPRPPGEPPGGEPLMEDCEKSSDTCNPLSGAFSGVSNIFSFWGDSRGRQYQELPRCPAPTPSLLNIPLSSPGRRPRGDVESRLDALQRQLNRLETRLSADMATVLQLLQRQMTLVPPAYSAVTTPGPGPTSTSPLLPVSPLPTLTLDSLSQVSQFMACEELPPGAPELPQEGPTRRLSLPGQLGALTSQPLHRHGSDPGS

Structure (SMILES) | hERG current change (%, negative = inhibition) at 10uM [%]
COc1cc(-c2ccccc2)nc(N)n1 | -12.5
CCCCOc1ccc(C(=O)NCC(=O)NCC(=O)OCC)cc1 | 7.17
O=C(Cn1cccc1C(=O)c1ccccc1)NCCCN1CCc2ccccc2C1 | -74.1
c1ccc(C(c2ccccc2)N2CCN(Cc3nc(-c4cnccn4)no3)CC2)cc1 | -21.6
COc1cccc(-c2ncc3ccccc3c2COC(=O)N2CCOCC2)c1 | -19.7
Cc1csc(C(=O)O)c1-n1cccc1 | 18.6
CCOC(=O)C1CCCN(C(=O)Cn2cnc3c2c(=O)n(C)c(=O)n3C)C1 (centres unmarked) | 20.3
CCOc1ccc(Br)cc1/C=N/NC(=O)c1ccncc1 | -17.3
CCCCNC(=O)Nc1c(C(=O)OC)[nH]c2ccc(C)cc12 | -2.17
COc1ccc(NC(=O)C2CCCN(S(=O)(=O)c3cccc4cccnc34)C2)c(OC)c1 (centres unmarked) | -4.99
COc1ccc(NC(=O)c2ccc(Cl)c(S(=O)(=O)N3CC(C)OC(C)C3)c2)cn1 (centres unmarked) | -7.91
CC(c1ccccc1)C1C(C#N)=C(N)SC(N)=C1C#N (centres unmarked) | -4.5
COc1ccccc1CCc1nnc(CCC(=O)N(C)Cc2cccc3ncccc23)o1 | -15.1
Cc1cccn2c(=O)nc(SCC(=O)Nc3ccc4c(c3)OCO4)nc12 | -5.58
O=C(Nc1ccc(C(F)(F)F)cc1)C1CCCN1S(=O)(=O)c1cccc2cccnc12 (centres unmarked) | -51.9
O=C(CSc1ncnc2sc3c(c12)CCCC3)c1ccccc1 | 3.83
COc1ccc(NC(=O)NCCN2CCCCC2)cc1 | -10.1
Cc1cccc(NC(=S)N(CCN2CCOCC2)Cc2ccccc2F)c1 | -25
CC(=O)c1ccc(NC(=O)Nc2ccc(Br)cc2C)cc1 | 22.3
O=C(NC1CCN(CC(=O)N(c2ccccc2)c2ccccc2)CC1)c1ccc([N+](=O)[O-])cc1 | -78
CC(C)Oc1cccc(C(=O)N/N=C/c2ccoc2)c1 | 8.71
CCn1ccc(C(=O)NCc2ccc3c(c2)OCO3)n1 | 13.2
COC(=O)c1sc(S(=O)(=O)NCc2ccccc2)c(C(=O)OC)c1C | -50.4

Structure (SMILES) | hERG current change (%, negative = inhibition) at 10uM [%]
O=C(NCc1ccccc1)c1ccc(Br)o1 | 8.67
Cc1oc2c(c1C(=O)NCCO)CCCC2 | 18.6
CN(Cc1cccnc1)C(=O)Cc1ccc(NS(=O)(=O)c2cccc(C(F)(F)F)c2)cc1 | -57.6
O=C(C(=O)N1CCCCC1)c1c(-c2ccccc2)[nH]c2ccccc12 | 8.46
Cc1ccc(Oc2nnc(-c3ccccc3)c3ccccc23)cc1 | -2.98
Nn1c(SCc2cn3cc(Cl)ccc3n2)nnc1-c1ccncc1 | -30.6
COc1cc(OC)c(C2=NOC(C(=O)NCc3ccc4c(c3)OCO4)C2)cc1Cl (centres unmarked) | -4.96
Nc1cc(CN2C(=O)c3ccccc3C2=O)cc(Cl)c1O | -5.61
COCCNC(=O)COC(=O)C1=Cc2ccccc2OC1 | 25.1
CC(C)OCCCn1c(=O)c2ccccc2n2c(CCC(=O)N3CCN(c4ccccn4)CC3)nnc12 | -71.1
C=CCn1cc(/C=N\NC(=O)c2cc3c(ccc4ccccc43)o2)c2ccccc21 | -4.85
CN(C)S(=O)(=O)c1ccc(C(=O)OCC(=O)Nc2ccccc2OC(F)F)cc1 | -5.82
O=C(COc1ccc(Cl)cc1)NCc1nnc(SCC(=O)NCCc2ccccc2)o1 | -8.89
CCCCn1c(=O)[nH]c(=O)c2c1nc(-c1ccncc1)n2CCOC | -0.235
N#Cc1nc(COc2ccc(Cl)cc2)oc1N1CCN(Cc2ccccc2)CC1 | -1.08
CCCN(CC(=O)Nc1ccccc1C)C(=O)c1ccc2c(c1)OCO2 | 9.43
COc1ccccc1C(=O)NC(CCSC)C(=O)NCCCn1nc(C)cc1C (centres unmarked) | -0.863
CCOCCCNC(=O)c1ccc(Cn2c(=O)[nH]c3ccsc3c2=O)cc1 | 12.4
COc1cc(Cl)cc(C(c2c(C(=O)O)[nH]c3ccccc23)c2c(C(=O)O)[nH]c3ccccc23)c1O | 13.4
C[C@H]1CCC(=O)N([C@H](CN=[N+]=[N-])Cc2ccccc2)CC1 | 0.858
C=CCNC(=O)N[C@@H](CCSC)C(=O)OC | -3.95
Cc1sc2nc3n(c(=O)c2c1C)NC(=O)CC3 | 10.2
Cc1ccc(C2CC(=O)N3CN(c4ccc(Br)cc4)CSC3=C2C#N)o1 (centres unmarked) | 11.1

Structure (SMILES) | hERG current change (%, negative = inhibition) at 10uM [%]
O=C(CSc1nnc(-c2ccco2)o1)c1ccc([N+](=O)[O-])cc1 | -35.7
CCN(CC)c1ccc(NC(=O)COc2ccc(C)cc2)cc1 | -15.3
CCn1ncc(Br)c1C(=O)Nc1ccccc1C(=O)OC | -4.3
COc1cc(OC)nc(Oc2ccccc2C(=O)Oc2ccc(Cl)cc2)n1 | -21.6
c1cc2c(cc1Oc1nc(N3CCOCC3)nc(N3CCOCC3)n1)OCO2 | 3.77
O=C(COc1ccccc1)N/N=C/c1ccc([N+](=O)[O-])o1 | -17.8
O=C(Nc1ccccc1F)c1ccc(Br)o1 | 3.57
Cc1ccc(S(=O)(=O)NC(=O)Nc2cc(C(C)(C)C)on2)cc1 | 17.5
O=C(Nc1nonc1-c1ccc(Cl)cc1)c1ccccc1 | 10.3
O=c1[nH]c(Nc2ccccc2Cl)cc2ccccc12 | 10.9
O=C(NNC1=C(C(=O)C(F)(F)F)CCC1)c1ccncc1 | 23.7
CN(C)C(=O)CCCCCCCCC(=O)N(C)C | 19.2
COc1ccc(/C(C)=N\NS(C)(=O)=O)c(OC)c1 | 17.9
Cc1cccc2cc(C(c3nnnn3C(C)(C)C)N3CCN(C(=O)c4ccco4)CC3)c(=O)[nH]c12 (centres unmarked) | -16.2
O=C(CSc1nnc(-c2ccccn2)n1-c1ccc(Cl)cc1)Nc1ccc2c(c1)OCO2 | 7.63
Cc1ccc(-c2ocnc2C(=O)Nc2ccccc2NC(=O)c2ccccn2)cc1 | 14.3
CCc1ccc(-n2c(=O)c3ccccc3n(CC(=O)NCc3ccco3)c2=O)cc1 | 20.6
CCOc1ccc(N(CC(=O)NC2CCCCC2)C(=O)CSc2nnc(COc3ccccc3)o2)cc1 | -4.72
CCNC(=O)COc1cccc2ccccc12 | -13.9
O=C(N/N=C\c1ccc[nH]1)C1COc2ccccc2O1 (centres unmarked) | -9.26
Cc1ccc(C)c(Cc2c(C)nc3c(C(=O)N4CCOCC4)cnn3c2C)c1 | -7.47
CC1=NOC(=O)/C1=C/c1ccc(N(C)C)cc1 | -1.58
Cc1cc(-c2nnc3n2N=C(C(C)(C)C)CS3)n[nH]1 | 7.77

Structure (SMILES) | hERG current change (%, negative = inhibition) at 10uM [%]
Cc1cc(C)c2c(c1)[C@@H]1C=CC[C@@H]1[C@H](c1ccc(S(=O)(=O)N3CCOCC3)cc1)N2 | -5.61
COc1ccc(C(=O)Oc2cccc3cccnc23)cc1S(=O)(=O)N1CCOCC1 | -31.9
O=C(c1ccc(O)cc1)c1ccc(C(=O)c2ccc(O)cc2)cc1 | -4.4
CC(NC(=S)NCc1ccccc1)C12CC3CC(CC(C3)C1)C2 (centres unmarked) | 20.4
CCOc1cc(C(C#N)N2CCCCC2)ccc1OC (centres unmarked) | 9.09
CN(C(=O)c1ccccc1Cl)c1ccccc1 | -4.32
CCN(C(=O)COC(=O)CNC(=O)c1ccc2ccccc2c1)C1CCS(=O)(=O)C1 (centres unmarked) | -8.27
COc1ccccc1CC(=O)Nc1ccccc1C(=O)O | 16.7
CC(C)N1CCc2c(sc(NC(=O)CCc3ccccc3)c2C(N)=O)C1.Cl | -57.2
CC1CCCCC1NC(=O)c1cn(C)c2ccc(S(=O)(=O)N3CCOCC3)cc2c1=O (centres unmarked) | -19.3
CCN(c1ccccc1)S(=O)(=O)c1ccc2c(c1)N(C(C)=O)CCS2 | -11.6
CC(=O)Nc1ccc(N/C=C/C(=O)c2ccccc2)cc1 | 9.1
Cc1ccc(C)c(NC(=O)CS(=O)(=O)c2cccc3nsnc23)c1 | -12.8
CCOC(=O)N1CCN(CC(=O)Nc2ccc(F)c(F)c2F)CC1 | 7.7
CC(C)(C)c1ccc(C(=O)c2cn[nH]c2-c2ccccc2O)cc1 | 9.39
O=C(O)Cn1c(CCS(=O)(=O)c2ccc(Br)cc2)nc2ccccc21 | 12
CCOC(=O)N1CCN(c2c(NCCCN(CC)CC)c(=O)c2=O)CC1 | 1.23
COc1ccc(C(OCC(O)CNC(C)c2ccccc2)c2ccc(OC)cc2)cc1 (centres unmarked) | -52.4
CCc1ccc(S(=O)(=O)Nc2ccc(C)c(NS(C)(=O)=O)c2)cc1 | 0.781
O=c1nc(Nc2ccc(OCc3ccccc3)cc2)sc2ncccc12 | 12.6
